Assay results taken from PubChem BioAssay AID686979 (National Center for Advancing Translational Sciences (NCATS), 2013).
Where “and” joins values, the source holds several entries; their conditions need not be identical. Equal values may be shown once. Out of some 420,000 compounds screened, about 50,000 (12%) were called active. The inconclusive results got no clear call from the source; some entries with a clear call stand among them for comparison. The call rests on the fitted dose curve; in most records, active means well fitted inhibition curve with a large enough effect; inconclusive means small, poorly fitted or top-dose-only effect; inactive means flat fitted curve, though single readings scatter. Potencies beside an inconclusive call are fits to weak or partial responses and may not hold up.

experiment: qHTS for Inhibitors of human tyrosyl-DNA phosphodiesterase 1 (TDP1): qHTS in cells in presence of CPT; conditions: chicken DT40 Tdp1-/-;hTDP1 cells + 20 nM CPT, ATP luminescence, 48 h; activity change, negative = growth inhibition: at 46.2 µM (top of the series) unless noted; further: nearly all actives have a fitted effect of over 55% in size
How it was run: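 Chicken DT40 Tdp1-/- cells complemented with human TDP1, 400 cells/well, exposed to compounds plus 20 nM camptothecin for at least 48 h at 37 C; viability read as ATP content by CellTiter-Glo luminescence.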
On the % scale 0 is the no-effect control and ±100 the full control effect; potency means the concentration at half of the fitted maximal effect; tags describe the fitted curve by direction and shape.

Row | Compound | Potency | activity change, negative = growth inhibition
1 | CCOc1ccc2c(=O)c(-c3ccc4c(c3)OCCCO4)c(C)oc2c1 | active: 18.4 µM | –
2 | COc1ccc(/C=N/NC(=O)c2cc(C34CC5CC(CC(C5)C3)C4)[nH]n2)cc1O | inconclusive: 29.1 µM [inhibitor, single point] | –
3 | Cc1cccc(N=Nc2c(O)[nH]c3ccc(Br)cc23)c1 | inconclusive: 16.4 µM [inhibitor, single point] | –
4 | Cc1cc(C)c(S(=O)(=O)N(C)c2ccccc2)c(C)c1 | inconclusive: 29.1 µM [inhibitor, single point] | –
5 | CCOC(=O)c1nc(Nc2ccc(OC)cc2)c2ccccc2n1 | inconclusive: 29.1 µM [inhibitor, single point] and inconclusive: 18.4 µM [inhibitor, single point] | –
6 | CCOC(=O)N1CCC(N2C(=O)c3ccccc3C2Nc2cc(C)cc(C)c2)CC1 (stereo not given) | inconclusive: 29.1 µM [inhibitor, single point] | –
7 | Cc1ccc(NS(=O)(=O)c2c(C)ccc3nsnc23)c([N+](=O)[O-])c1 | inactive | –
8 | CCOC(=O)Cc1nc(-c2ccccc2)n[nH]1 | inactive | –
9 | CN(Cc1ccccc1)S(=O)(=O)c1ccc(OCC(=O)NCc2ccncc2)cc1 | – | inconclusive: -32.6% [inhibitor]
10 | CCOc1ccc(CCN2C(=O)C(=O)N([C@@H](Cc3ccccc3)CN3CCC[C@H]3CN3C(=O)C(=O)NC[C@@H]3Cc3ccccc3)C[C@@H]2Cc2ccc(O)cc2)cc1 | inconclusive: 20.6 µM [inhibitor, single point] | –
11 | CCOc1ccc(CNC(=O)CCS(=O)(=O)Cc2ccccc2C)cc1OC | inactive | –
12 | O=S(=O)(NCc1ccc(F)cc1)c1ccc2[nH]c3c(c2c1)CCCCC3 | inconclusive: 14.6 µM [inhibitor, single point] | –
13 | CC(C)CCNC(=O)c1ccc(Cn2c(=O)c3cccn3c3cccnc32)cc1 | inconclusive: 5.8 µM [inhibitor, partial curve] | –
14 | Cc1ccccc1Nc1c(-c2cccc(O)c2)nc2ccc(Br)cn12 | inconclusive: 25.9 µM [inhibitor, single point] | –
15 | CCCCN(C)C(=O)CCCCn1c(=O)[nH]c2cc(OCC)c(OCC)cc2c1=O | inconclusive: 29.1 µM [inhibitor, single point] | –
16 | O=C1C[C@@H]2c3c(cccc3CN1Cc1ccccc1Br)C[C@@H](O)[C@H]2O | inactive | –
17 | COc1ccc(NC2=C(NCCO)C(=O)c3ccccc3C2=O)cc1 | active: 11.6 µM | –
18 | CCN(CC)c1ccc(NC(=O)COc2ccc(C#N)cc2)cc1S(=O)(=O)Nc1ccc(OC)cc1 | inactive | –
19 | O=C1C(CN2CCCC2)CCCC1CN1CCCC1 (stereo not given) | active: 0.517 µM | –
20 | O=C(CSc1nnc(CNC(=O)c2ccccc2)o1)Nc1nccs1 | inactive | –
21 | COc1cc(-c2cnc3c(NC=O)cc(-c4ccc(S(C)(=O)=O)cc4)cn23)cc(OC)c1OC | active: 16.4 µM | –
22 | O=C(O)COc1ccc(S(=O)(=O)N2CCCC2)cc1 | inactive | –
23 | COc1cc(OC)c(NC(=O)CSC2=Nc3ccccc3N=C(c3ccc(F)cc3)C2)cc1Cl | inconclusive: 10.3 µM [inhibitor, partial curve] | –
24 | CCOc1ccc(CNC(=O)c2ccc3c(c2)sc2nc(-c4ccc(OC)cc4)cn23)cc1 | inactive | –

Row | Compound | Potency | activity change, negative = growth inhibition
25 | O=C(OCC(=O)N1CCCCCC1)c1ccc(Br)c(S(=O)(=O)N2CCOCC2)c1 | inactive | –
26 | O=Cc1c(Cl)cccc1Cl | inactive | –
27 | Cc1cccc(Nc2nc(Nc3cccc(C)c3)nc(N3CCOCC3)n2)c1 | active: 14.6 µM | –
28 | CC(C)Cc1nc(N2CCN(C(=O)C(C)C)CC2)c(C#N)c2c1CCC2 | active: 20.6 µM | –
29 | Cc1cccc(N2CCN(C(=O)c3cccc(N4C(=O)C5CC=CC(C)C5C4=O)c3)CC2)c1C (stereo not given) | inconclusive: 9.2 µM [inhibitor, partial curve] | –
30 | Cn1c(=O)c(=O)n(C)c2cc(N3CCOCC3)c(NS(=O)(=O)c3ccc([N+](=O)[O-])cc3)cc21 | inconclusive: 29.1 µM [inhibitor, single point] | –
31 | CC(=O)c1ccc(Oc2cnccn2)cc1 | inactive | –
32 | COc1nnc(-c2ccc(C)c(S(=O)(=O)NC(C)C)c2)c2ccccc12 | inactive | –
33 | Cc1ccc(NC(=O)CCC(=O)NNC(=O)c2ccccc2[N+](=O)[O-])c(C)c1 | inactive | –
34 | Cc1[nH]c(C)c(S(=O)(=O)NCc2ccc(F)cc2)c1C(=O)N1CCCCC1 | inactive | –
35 | O=C(NCc1ccccc1Cl)c1ccc2sc([C@H]3C[C@H](O)[C@@H](CO)O3)nc2c1 | inconclusive: 20.6 µM [inhibitor, partial curve] | –
36 | CS(=O)(=O)Nc1cccc(-c2ccc3ncnc(Nc4ccc(F)cc4)c3c2)c1 | active: 18.4 µM | –
37 | Cc1ccc(C(=O)NCCNS(=O)(=O)c2ccccc2)cc1 | inactive | –
38 | Cc1sc(C2C(C#N)=C(N)N(c3cccc(Cl)c3)C3=C2C(=O)CCC3)cc1CN1CCOCC1 (stereo not given) | inactive | –
39 | O=C(CN1CCc2ccccc21)NN1CC(=O)N(c2ccccc2)CC1=O | inactive | –
40 | Cc1ccc(CNC(=O)c2cc(S(=O)(=O)N3CCCC(C)C3)cn2C)cc1 (stereo not given) | inconclusive: 13 µM [inhibitor, partial curve] | –
41 | c1ccc(COc2cccc(CNCc3ccccn3)c2)cc1 | inconclusive: 20.6 µM [inhibitor, single point] | –
42 | O=C(c1ccccc1)N(Cc1ccc(F)cc1)Cc1nc2ccccc2c(=O)[nH]1 | inconclusive: 18.4 µM [inhibitor, single point] | –
43 | N#C/C(=C\c1ccc(OCc2ccccc2)cc1)C(=O)Nc1nc2c(s1)CCN(Cc1ccccc1)C2 | active: 23.1 µM | –
44 | COc1ccc(OC)c(NC(=O)C2(C)CCN2Cc2cccc(OC)c2OC)c1 (stereo not given) | inconclusive: 18.4 µM [inhibitor, single point] | –
45 | COc1ccc(CNC(=O)COC(=O)c2cc(C)oc2C)cc1 | inactive | –
46 | NS(=O)(=O)c1ccc(CCNC(=O)CN2CCN(c3cccc(Cl)c3)CC2)cc1 | active: 18.4 µM | –
47 | CC(=O)Nc1ccc(S(=O)(=O)N2CCN(c3cc4c(cc3[N+](=O)[O-])n(C)c(=O)n4C)CC2)cc1 | inconclusive: 20.6 µM [inhibitor, single point] | –
48 | Cc1[nH]c2ccccc2c1C(=O)CSc1ccc(Cl)cc1 | active: 23.1 µM | –

Row | Compound | Potency | activity change, negative = growth inhibition
49 | CC1CCN(C(=S)c2cn(Cc3ccc(F)cc3)c3ccccc23)CC1 | inconclusive: 29.1 µM [inhibitor, single point] | –
50 | CCN(CCCNC(=O)c1ccc(Sc2ccc(C)cc2)c(NC(C)=O)c1)c1cccc(C)c1 | inconclusive: 29.1 µM [inhibitor, single point] | –
51 | C#CCN(C[C@@H]1[C@@H](OC(=O)NCc2ccco2)[C@@H](OC(=O)NCc2ccco2)Cn2c(=O)ccc(=O)n21)S(=O)(=O)c1ccc(C)cc1 | active: 4.61 µM | –
52 | Cc1cc(=O)[nH]c(Nc2ccc(C(=O)OC(C)C)cc2)n1 | inconclusive: 29.1 µM [inhibitor, single point] | –
53 | CN(C)CCCN(C(=O)c1ccc(Cl)s1)c1nc2cc3c(cc2s1)OCO3 | inconclusive: 29.1 µM [inhibitor, single point] | –
54 | CCCCCCCCN1C(=O)[C@H](CC(=O)N2CCN(C(=O)c3ccco3)CC2)C[C@@]2(C(=O)OC)CCCCC=C12 | inconclusive: 29.1 µM [inhibitor, single point] | –
55 | CCOC(=O)c1c(NC(=O)c2ccccc2Cl)sc2c1CCc1ccccc1-2 | inconclusive: 18.4 µM [inhibitor, single point] | –
56 | O=C(C[n+]1ccccc1Cl)c1ccc2ccccc2c1 | inconclusive: 25.1 µM [inhibitor, single point] | –
57 | Cc1ccc(N2CCN(S(=O)(=O)c3ccc4c(c3)n(C)c(=O)c(=O)n4C)CC2C)cc1 (stereo not given) | inconclusive: 1.46 µM [inhibitor, partial curve, poor fit] | –
58 | Cc1ccc(OCCNC(=O)Cc2ccc(S(=O)(=O)N3CCOCC3)s2)cc1 | inactive | –
59 | O=c1[nH]c2cc3c(cc2cc1CN(CC1CCCO1)S(=O)(=O)c1ccc(Cl)cc1)OCCO3 (stereo not given) | inconclusive: 25.9 µM [inhibitor, single point] | –
60 | CC1CCCN(C(=S)Nc2ccc(Nc3ccccc3)cc2)C1 (stereo not given) | active: 10.3 µM | –
61 | CCOc1cccc(C(=O)Nc2ccc3oc(-c4ccc(C(C)(C)C)cc4)nc3c2)c1 | inconclusive: 14.6 µM [inhibitor, single point] | –
62 | COc1ccc(C2c3c(-c4ccccc4O)n[nH]c3C(=O)N2Cc2ccco2)cc1OC (stereo not given) | inactive | –
63 | CC(=O)Nc1sc(N/N=C/c2ccccc2F)nc1-c1ccc(C)cc1 | inconclusive: 25.9 µM [inhibitor, single point] | –
64 | C#CCSc1nc2sc3c(c2c(=O)n1-c1cccc(OC)c1)CCN(C(C)=O)C3 | inconclusive: 29.1 µM [inhibitor, single point] | –
65 | CCNc1c(NC(=O)COc2ccc(Cl)cc2)c(=O)oc2ccccc12 | inactive | –
66 | CCCC1=C(C(=O)OCC)C(c2cc(Cl)cc(OC)c2OCC(=O)OCC)NC(=O)N1 (stereo not given) | inconclusive: 20.6 µM [inhibitor, single point] | –
67 | Cc1ccc(S(=O)(=O)Nc2ccc(-c3ccc(N4CCCCCC4)nn3)cc2)cc1C | active: 2.91 µM | –
68 | C=CCNC(=O)c1c(O)c2cccc3c2n(c1=O)CCC3 | inconclusive: 0.411 µM [inhibitor, full curve, poor fit] | –
69 | COc1ccc(C(=O)N(CCc2ccccc2)Cc2ccccc2)c(OC)n1 | inconclusive: 29.1 µM [inhibitor, single point] | –
70 | CCn1c(C)nnc1SCC(=O)Nc1ccc(Cl)cc1 | inactive | –
